# Source: the BET-seq Pho4 binding data (Le et al. 2018)
# This is one part of the list. Values were computed here from the reads of four pooled replicates and scatter widely.
# Target: T1, Pho4 (S. cerevisiae) (UniProt P07270)
# T1 sequence: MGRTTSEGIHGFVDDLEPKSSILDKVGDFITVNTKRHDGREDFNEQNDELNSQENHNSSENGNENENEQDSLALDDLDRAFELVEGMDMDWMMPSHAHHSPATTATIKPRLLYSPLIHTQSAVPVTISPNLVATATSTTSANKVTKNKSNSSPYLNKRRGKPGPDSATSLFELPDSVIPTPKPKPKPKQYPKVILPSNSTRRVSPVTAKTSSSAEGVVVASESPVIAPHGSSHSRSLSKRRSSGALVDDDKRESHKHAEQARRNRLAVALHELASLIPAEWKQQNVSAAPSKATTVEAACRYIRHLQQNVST
# Test: relative binding free energy (BET-seq); higher = weaker binding
# Conditions: reference: library average
row,Sequence,relative binding free energy
1,GCAGGCACGTGGGTAG,-0.29 kcal/mol
2,GTTGCCACGTGAGTGA,0.22 kcal/mol
3,CTGGGCACGTGAAGTT,0.26 kcal/mol
4,TGGAGCACGTGTATAA,-0.07 kcal/mol
5,AATTGCACGTGGGGGC,-0.22 kcal/mol
6,TGGCACACGTGTTAGG,-0.01 kcal/mol
7,GTTATCACGTGGATGG,0.1 kcal/mol
8,TGGCTCACGTGTATGT,0.18 kcal/mol
9,GGGGACACGTGAGTTT,0.31 kcal/mol
10,CATGTCACGTGGTCGG,-0.07 kcal/mol
11,GGCGGCACGTGGTTTC,0.03 kcal/mol
12,GATGACACGTGATTGT,0.17 kcal/mol
13,GAGGTCACGTGGAATT,0.42 kcal/mol
14,TTGGTCACGTGTGTTT,0.2 kcal/mol
15,TTAGTCACGTGCGAGG,0.12 kcal/mol
16,GGCGGCACGTGTGTAA,0.03 kcal/mol
17,AAGTACACGTGAGGGG,0.31 kcal/mol
18,TATAGCACGTGATGAG,-0.13 kcal/mol
19,TAGTGCACGTGCGGGC,-0.21 kcal/mol
20,TGGGACACGTGATAAG,0.21 kcal/mol
21,AAAATCACGTGGGTAT,0.07 kcal/mol
22,GCTTGCACGTGGGGCA,-0.15 kcal/mol
23,GGTTGCACGTGTGCGC,-0.01 kcal/mol

row,Sequence,relative binding free energy
1,AAGGGCACGTGCGGTG,-0.24 kcal/mol
2,GCTGTCACGTGGCGGT,-0.03 kcal/mol
3,GTTTTCACGTGCGGAT,0.39 kcal/mol
4,TGTCACACGTGATGGG,0.18 kcal/mol
5,AATGTCACGTGAATGG,0.35 kcal/mol
6,ATTGTCACGTGGGCTA,-0.12 kcal/mol
7,GTGTTCACGTGTATGT,0.29 kcal/mol
8,GGTCTCACGTGTAGGG,0.21 kcal/mol
9,TATGACACGTGTACGA,0.21 kcal/mol
10,TTAATCACGTGATAGT,0.29 kcal/mol
11,GTTGACACGTGGGTGT,-0.09 kcal/mol
12,AAATTCACGTGTGATA,0.26 kcal/mol
13,ATGTGCACGTGGGTCG,-0.19 kcal/mol
14,TATATCACGTGAAGTG,0.26 kcal/mol
15,TGTTGCACGTGGTGAC,-0.05 kcal/mol
16,AAGTCCACGTGGGTAT,0 kcal/mol
17,CTCGGCACGTGTGCGT,-0.09 kcal/mol
18,TACATCACGTGTTGAG,0.22 kcal/mol
19,TTGGGCACGTGTTATA,0.01 kcal/mol
20,AGGCGCACGTGCGGAG,-0.13 kcal/mol
21,GTGCGCACGTGCCGTG,-0.06 kcal/mol
22,TTCAACACGTGGGAGG,-0.03 kcal/mol
23,AGTGGCACGTGTGTTT,0.01 kcal/mol

row,Sequence,relative binding free energy
1,AGTGACACGTGGTCGT,-0.1 kcal/mol
2,AGGACCACGTGTAGGG,-0.07 kcal/mol
3,AGAAGCACGTGTAGTA,-0.01 kcal/mol
4,TGTCACACGTGTCGTG,0 kcal/mol
5,AAGGTCACGTGTCGCT,0.15 kcal/mol
6,CTGTGCACGTGTGAGT,0.03 kcal/mol
7,TAGGCCACGTGTAAGG,0.04 kcal/mol
8,TGTCCCACGTGTTGTG,0 kcal/mol
9,TAGGGCACGTGTCGGT,-0.12 kcal/mol
10,AGGAGCACGTGGTATA,-0.12 kcal/mol
11,GAGGTCACGTGCGTAT,0.07 kcal/mol
12,AGGGACACGTGTGTGC,0.02 kcal/mol
13,CAGTTCACGTGGGAGG,0.23 kcal/mol
14,TGAGGCACGTGCGGGC,-0.27 kcal/mol
15,GTTATCACGTGAGTGC,0.24 kcal/mol
16,GGGTCCACGTGGCGGG,-0.06 kcal/mol
17,ATTGGCACGTGGACTG,-0.17 kcal/mol
18,TACGCCACGTGGTGTG,-0.14 kcal/mol
19,GAGATCACGTGGTGTA,0.17 kcal/mol
20,CTTTTCACGTGGAGTC,0.38 kcal/mol
21,GGTCTCACGTGGCGGG,0.22 kcal/mol
22,TTTAACACGTGTTAAT,0 kcal/mol
23,ATATTCACGTGTGGGA,0.12 kcal/mol

row,Sequence,relative binding free energy
1,TGGTTCACGTGGGCTG,0.23 kcal/mol
2,TGCTTCACGTGGGTTA,0.2 kcal/mol
3,GGGCGCACGTGGGAAT,-0.03 kcal/mol
4,AGAGTCACGTGTTACG,0.15 kcal/mol
5,TAGGGCACGTGGGGCC,-0.22 kcal/mol
6,TATGGCACGTGCTGAT,-0.13 kcal/mol
7,ATATTCACGTGGCTAT,0.18 kcal/mol
8,TATTGCACGTGGGAAT,-0.1 kcal/mol
9,AGTTGCACGTGTTTCA,-0.02 kcal/mol
10,TGCTCCACGTGTTGTT,-0.07 kcal/mol
11,ATTATCACGTGTGTGT,0.2 kcal/mol
12,GCCGGCACGTGGCGGG,-0.15 kcal/mol
13,TGCTGCACGTGTTGGT,-0.01 kcal/mol
14,TTATTCACGTGCGAGA,0.34 kcal/mol
15,GTATTCACGTGTTTAC,0.24 kcal/mol
16,AATTTCACGTGGCCGT,0.35 kcal/mol
17,ATTGTCACGTGAGGGC,0.18 kcal/mol
18,TAGTTCACGTGAAGGA,0.52 kcal/mol
19,GGAATCACGTGCGTAG,0.18 kcal/mol
20,TTTGACACGTGGGCGT,-0.09 kcal/mol
21,ATGGGCACGTGTGTGA,-0.07 kcal/mol
22,CTGTGCACGTGGTACG,-0.14 kcal/mol
23,GAGATCACGTGTTTTT,0.26 kcal/mol

row,Sequence,relative binding free energy
1,TAAGGCACGTGCGGGC,-0.05 kcal/mol
2,GGCAGCACGTGTTTTG,0.05 kcal/mol
3,CGTTTCACGTGTTTGG,0.14 kcal/mol
4,TCGGTCACGTGTAGAA,0.2 kcal/mol
5,TGTCGCACGTGTGAGT,-0.07 kcal/mol
6,TATTACACGTGGTGTT,0.02 kcal/mol
7,GCGCTCACGTGGGTGT,0.1 kcal/mol
8,AAGATCACGTGGGGCT,0.02 kcal/mol
9,CTGATCACGTGGATGG,0.14 kcal/mol
10,AGGTTCACGTGGGGTA,0.15 kcal/mol
11,TGGCTCACGTGCGGTG,0.24 kcal/mol
12,AGGGTCACGTGCGAGT,0.03 kcal/mol
13,TTTTCCACGTGGTTAG,0.07 kcal/mol
14,TACTACACGTGGTGGT,0.08 kcal/mol
15,TAGGCCACGTGCGTTG,-0.16 kcal/mol
16,TTAAGCACGTGATGCT,0.14 kcal/mol
17,AAGGACACGTGGGTTA,-0.02 kcal/mol
18,CTATGCACGTGAGGGT,0.06 kcal/mol
19,CAGTGCACGTGGTCTT,0.11 kcal/mol
20,GGGGTCACGTGGTGGC,0.12 kcal/mol
21,AGGCCCACGTGAGGTG,0.15 kcal/mol
22,GCGGGCACGTGGAAGT,0.01 kcal/mol
23,TTTGGCACGTGTTAGG,-0.09 kcal/mol
